Measurements taken from PubChem BioAssay AID1508624 (National Center for Advancing Translational Sciences (NCATS), 2021).
Values joined by “and” are separate entries in the source; they are usually repeats but may differ in a detail not shown here. Equal entries are not always repeated. About 120 (0.25%) of roughly 48,000 compounds were called active. The shares of active, inactive and inconclusive entries below differ from those in the screen. Calls follow the shape of the dose curve; as a rule, active = well fitted activation curve with a large enough effect; inconclusive = small, poorly fitted or top-dose-only effect, or another doubt; inactive = no such curve, though single readings can be large or run the other way. Where the call is inconclusive, the potency comes from a doubtful curve fit.

Assay: Primary qHTS for Identification of Small Molecule Activators of Huntingtin-Antisense Promoter Activity; also: nearly all actives have a fitted effect of over 55% in size
Conditions: HEK293 HTT-AS promoter firefly luciferase reporter, 24 h; activity change, positive = activation: at 57.5 µM (top of the series), percent change from vehicle, -100% = no light
In short: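 HEK293 luciferase promoter-reporter cells (2,500/well) plated 24 h, then compounds added at up to 57.5 uM final for 24 h at 37 °C. Firefly luminescence by Dual-Glo, normalized to vehicle (0%) and zero RLU (-100%).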
Potency is read from the fitted curve at half-maximal effect; tags tell the direction and shape of the fitted curve.

| Structure (SMILES) | Potency | activity change, positive = activation |
| --- | --- | --- |
| CC(C)Nc1ccc(-c2nc(-c3ccncc3)no2)cc1[N+](=O)[O-] | inconclusive: 15.8 µM [activator, partial curve, poor fit] | – |
| O=C(Nc1cccs1)Nc1ccc(F)cc1F | inconclusive: 4.47 µM [activator, partial curve] | – |
| CCc1ccc(-n2c(=O)c3c4c(sc3n(CC(=O)NCCCOC)c2=O)CCC4)cc1 | inactive | – |
| Cc1ccc(-n2nc(C(=O)N3CCN(c4ccccc4)CC3)c(=O)n(C)c2=O)cc1 | inactive | – |
| CC(C)(C)c1ccc(C(=O)CCCCl)cc1 | inconclusive: 3.55 µM [activator, partial curve, poor fit] | – |
| Cc1nc(N)sc1-c1ccnc(Nc2ccc(N3CCOCC3)cc2)n1 | inconclusive: 12.2 µM [activator, partial curve, poor fit] | – |
| COc1ccc(NS(=O)(=O)c2ccc3[nH]c4c(c3c2)CCCC4)c(OC)c1 | inactive | – |
| COc1ccccc1-c1cc(C(F)(F)F)nc(S(=O)(=O)CCCC(=O)Nc2cc(Br)ccc2O)n1 | inconclusive: 3.16 µM [activator, full curve, poor fit] | – |
| CC(=O)Nc1c(C(=O)Nc2cccc(C)c2)nnn1-c1ccc(C)cc1 | inactive | – |
| Cc1cc(N2CCN(C)CC2)nc2ccc(NC(=O)Nc3ccccc3)cc12 | inconclusive: 5.62 µM [activator, full curve] | – |
| COCCNC(=O)c1ccc2nc(CCc3ccccc3)oc2c1 | inconclusive: 3.55 µM [activator, partial curve, poor fit] | – |
| O=C(Nc1ccc2oc(-c3ccc4ccccc4c3)nc2c1)c1cc(Br)ccc1Cl | inconclusive: 7.94 µM [activator, partial curve] | – |
| Cc1ccc(C2CCN(C(=O)Nc3ccc(Cl)c(Cl)c3)C2)cc1 (centres undefined) | inconclusive: 8.91 µM [activator, partial curve, poor fit] | – |
| CCc1ccc(NC(=O)N(Cc2c[nH]c3ccccc23)C2CCCCC2)cc1 | inconclusive: 2 µM [activator, full curve, poor fit] | – |
| Cc1cc(C)cc(NC(=O)C2CCCN2S(=O)(=O)c2ccc3nc(-c4ccccc4)[nH]c3c2)c1 (centres undefined) | inactive | – |
| Cc1ccc(/C=C(\C#N)C(=O)Nc2cccc(Cl)c2)o1 | inconclusive: 1.58 µM [activator, full curve, poor fit] | – |
| COc1ccccc1C(=O)Nc1ccc(-c2nc3ccccc3s2)c(C)c1 | inconclusive: 1.58 µM [activator, full curve] | – |
| COc1ccc2c(c1)-c1nc(NC(=O)c3ccc(Cl)cc3)sc1CC2 | inactive | – |
| Cc1ccc2oc(-c3ccc(Cl)c(NC(=O)c4ccc(-c5ccccc5[N+](=O)[O-])o4)c3)nc2c1 | inconclusive: 28.2 µM [activator, single point] | – |
| O=C(Nc1ccc(Cl)c(Cl)c1)N1CCC(c2ccccc2)C1 (centres undefined) | inconclusive: 1.78 µM [activator, full curve, poor fit] | – |
| COc1ccc(C)cc1NC(=O)c1ccc2c(Cl)c3c(nc2c1)CCC3 | inconclusive: 7.94 µM [activator, partial curve, poor fit] | – |
| Cc1ccc(OCC(=O)Nc2ccc3nn(-c4ccc(Cl)cc4)nc3c2)cc1 | inconclusive: 0.398 µM [activator, full curve, poor fit] | – |

| Structure (SMILES) | Potency | activity change, positive = activation |
| --- | --- | --- |
| c1ccc2[nH]c(-c3cscn3)nc2c1 | inconclusive: 22.4 µM [activator, single point] and active: 19.3 µM | – |
| O=C(Nc1ccc(C(=O)N2CCN(c3ccc(F)cc3)CC2)cc1)c1nsc2ccccc12 | inconclusive: 1.12 µM [activator, partial curve, poor fit] | – |
| COc1ccccc1-c1noc(-c2ccc(N3CCOCC3)c([N+](=O)[O-])c2)n1 | inconclusive: 1.58 µM [activator, full curve, poor fit] | – |
| COC(=O)c1ccc(NC(=O)n2ncc3c(C)cccc32)cc1 | inconclusive: 28.2 µM [activator, partial curve, poor fit] | – |
| Cc1ccc(CN2C(=O)SC(Nc3ccc(Cl)cc3)C2=O)cc1 (centres undefined) | inactive | – |
| CNC(=O)Nc1ccc(-c2nc(N3CC4CCC(C3)O4)c3cnn(C4CCC5(CC4)OCCO5)c3n2)cc1 | inactive | – |
| CC1CCN(c2nc3ccc(C(=O)NC(C)C)cc3s2)CC1 | – | inconclusive: -82.4% [activator] |
| O=C(Nc1onc2c1CCCC2)c1ccccc1 | inconclusive: 7.08 µM [activator, single point] | – |
| Cc1ccc(-c2nc3cccc(C)n3c2Nc2ccc3c(c2)OCCO3)cc1 | inconclusive: 2.24 µM [activator, full curve] | – |
| COc1ccc(NC(=O)CSc2nc3ccccc3nc2N2CCCCC2)cc1 | inactive | – |
| Cc1cc2oc(=O)c(CC(=O)O)c(C)c2c2occ(-c3ccccc3)c12 | inconclusive: 10 µM [activator, partial curve, poor fit] | – |
| CCc1c(C)sc2c1CCN(Cc1ccc(C#N)cc1)C2c1ccccc1 (centres undefined) | inactive | – |
| CCc1ccc(-c2cn3nc(CC)sc3n2)cc1 | inconclusive: 0.224 µM [activator, full curve, poor fit] | – |
| CCc1ccccc1NC(=O)c1ccc2c(c1)CCCN2S(C)(=O)=O | inconclusive: 7.94 µM [activator, partial curve] | – |
| COc1ccc(Cn2c(CO)cnc2SCc2ccc(C)cc2)cc1 | inconclusive: 2.82 µM [activator, full curve] | – |
| CCc1ccc(-n2nc(CO)c(C(=O)NC)n2)cc1 | inconclusive: 15.8 µM [activator, partial curve, poor fit] | – |
| Cc1ccc(Cl)cc1-n1nnc(-c2nc(-c3ccc4c(c3)OCO4)no2)c1C | inconclusive: 25.1 µM [activator, partial curve, poor fit] | – |
| CC(C)c1onc(-c2c(Cl)cccc2Cl)c1COc1ccc(C=Cc2cccc(C(=O)O)c2)c(Cl)c1 | inconclusive: 6.11 µM [activator, full curve] | – |
| CCOc1ccccc1CNC(=O)c1oc2ccc3c(c2c1C)C(=O)CC(C)(C)O3 | inconclusive: 3.16 µM [activator, partial curve, poor fit] | – |
| CCCCCCCCCCCCCC[N+](C)(C)Cc1ccccc1 | inactive | – |
| COCC(=O)Nc1c(C(=O)Nc2ccc(C)cc2)oc2ccccc12 | inconclusive: 1.78 µM [activator, full curve, poor fit] | – |
| CC(=O)Nc1ccc(NC(=O)c2cc(-c3ccc4c(c3)OCCO4)on2)cc1 | inconclusive: 1.26 µM [activator, partial curve, poor fit] | – |

| Structure (SMILES) | Potency | activity change, positive = activation |
| --- | --- | --- |
| Cc1cccc(CSc2ccc(-c3cccs3)nn2)c1 | inconclusive: 11.2 µM [activator, partial curve, poor fit] | – |
| Cc1ccc(CNC(=O)c2ccccc2NC(=O)c2nsc3ccccc23)cc1 | inconclusive: 6.31 µM [activator, partial curve, poor fit] | – |
| CC1CCN(c2nc3ccc(C(=O)NCCc4ccc(S(N)(=O)=O)cc4)cc3s2)CC1 | – | inconclusive: -71% [activator] |
| Cc1cccc2sc(N(Cc3cccnc3)C(=O)C3COc4ccccc4O3)nc12 (centres undefined) | – | inconclusive: 34.9% [activator] |
| O=C(CCSCc1ccc(Cl)cc1)NCc1ccc(F)cc1Cl | – | inconclusive: -57.8% [activator] |
| CN(C)c1ccc(Nc2nc3ccccc3n3nnnc23)cc1 | inactive | – |
| Cc1cc(C)c(NS(=O)(=O)c2ccc(-c3coc(C)n3)cc2)c(C)c1 | inactive | – |
| CCOC(=O)c1ccc(NC(=O)c2c(NCc3cccs3)sc3c2CCCCC3)cc1 | inactive | – |
| COc1ccccc1NC(=O)C(=O)c1cc(C)n(-c2ccccc2F)c1C | inconclusive: 1.78 µM [activator, partial curve, poor fit] | – |
| CC(=O)O[C@H]1C[C@@H]2CC[C@H]3[C@H]4C[C@H]([N+]5(C)CCCCC5)[C@@H](OC(C)=O)[C@@]4(C)CC[C@@H]3[C@@]2(C)C[C@H]1N1CCCCC1 | inactive | – |
| Cc1cccc(NC(=O)Nc2ccc(F)cc2)n1 | inconclusive: 3.16 µM [activator, full curve] | – |
| Cc1ccc(CNc2nc(-c3ccco3)nn2S(C)(=O)=O)cc1 | inconclusive: 12.6 µM [activator, partial curve] | – |
| COc1ccc(C(=O)CSc2nc(C)cc(C)c2C(=O)Nc2ccccc2C)cc1 | inactive | – |
| CC(=O)Nc1ccc(NC(=O)C2CCN(c3c(NC(C)=O)c(C)nn3-c3ccccc3)CC2)cc1 | inconclusive: 22.4 µM [activator, partial curve] | – |
| NC1CCC(Nc2nc(Nc3ccc(C(=O)N4CCCCC4)cc3)c3ncn(-c4cccc(F)c4)c3n2)CC1 (centres undefined) | inconclusive: 5.44 µM [activator, partial curve] | – |
| COc1ccccc1NC(=O)CSc1nnc(-c2ccccc2C)o1 | inconclusive: 14.1 µM [activator, partial curve] | – |
| CCOc1ccc(NC(=O)c2ncoc2-c2ccco2)cc1 | inconclusive: 5.62 µM [activator, partial curve, poor fit] | – |
| Fc1ccc(C2=CC(c3ccc(F)cc3)n3c(nc4ccccc43)N2)cc1 (centres undefined) | inconclusive: 2.24 µM [activator, full curve, poor fit] | – |
| CCC(C)Nc1ncnc2c1cnn2-c1ccc(F)cc1 (centres undefined) | inconclusive: 0.355 µM [activator, full curve, poor fit] | – |
| COc1ccc(-n2c(SCC(=O)NCc3ccc(C)cc3)nc3n[nH]c(C)c3c2=N)cc1 | inactive | – |
